# In PubChem BioAssay AID1240 (Sanford-Burnham Center for Chemical Genomics, 2008):
# Screen size: about 50,000 compounds; about 800 (1.6%) showed an effect of 50% or more. The list shows a part of the results.
# Molecular target: Bcl-2-like protein 10 (Homo sapiens) (UniProt Q9HD36)
# Test: Phenotype converters, Bcl-B/TR3 peptide binding displacement, primary biochemical FP (AID 1240);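 note: 0% = Bcl-B with tracer peptide and DMSO and 100% = tracer peptide lacking Bcl-B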
# Details: GST-Bcl-B / FITC-TR3 peptide fluorescence polarization; stronger effect = higher value; compound at 3.75 mg/L
# UniProt Q9HD36, sequence (Q9HD36 whole entry, looked up): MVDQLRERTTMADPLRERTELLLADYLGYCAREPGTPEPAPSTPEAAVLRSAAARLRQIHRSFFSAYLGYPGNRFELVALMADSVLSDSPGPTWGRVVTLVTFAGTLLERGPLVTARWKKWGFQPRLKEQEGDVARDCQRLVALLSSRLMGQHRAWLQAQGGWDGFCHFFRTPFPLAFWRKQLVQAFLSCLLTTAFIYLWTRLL
row,SMILES,displacement
1,COc1ccc(C(O)(C(=O)Nc2ccccn2)c2ccc(OC)cc2)cc1,-27.8%
2,Cc1cc(NC(=O)c2ccc(Cl)cc2)ccc1-c1cc2ccccc2oc1=O,14.8%
3,COc1ccc(C(=O)Nc2ccccc2C(=O)O)cc1[N+](=O)[O-],-10.9%
4,O=C(NCC1CCCO1)c1cc2n(n1)C(C(F)(F)F)CC(c1cccs1)N2 (stereo not given),0%
5,Cc1cccc(C)c1NC(=O)C1CC(=O)N(C2CCCCC2)C1 (stereo not given),-7.8%
6,CCc1nnc(NC(=O)c2cc(-c3ccc(OC)cc3)nc3ccccc23)s1,-7.4%
7,NC1=NC2(CCCCC2)N=C(Nc2cccc(F)c2)N1,-1.5%
8,COc1cc(/C=C2/SC(=S)N(C)C2=O)ccc1OCc1cccc2ccccc12,6.6%
9,O=C1C(=O)N(CC2CCCO2)C(c2ccccc2)/C1=C(/O)c1ccccc1 (stereo not given),1.1%
10,CN(C)CC(Oc1ccc(F)cc1)C(=O)O (stereo not given),14.4%
11,O=C(COc1ccc(Cl)cc1)N1CCN(C(=O)c2cccc(F)c2)CC1,-0.2%
12,CCCCOC(=O)c1sc2nc(N)c(C#N)c(-c3ccc(OC)c(OC)c3)c2c1N,167%
13,O=C(c1ccc(F)cc1)N1CCN(C(=O)c2cccs2)CC1,10.9%
14,COCCNC(=O)c1ccc([N+](=O)[O-])cc1,7.3%
15,COc1cc(C2CC(=O)Nc3c2cc(Br)c2ccccc32)cc(OC)c1OC (stereo not given),-18.2%
16,O=C(N/N=C/c1ccccc1Cl)c1ccc(Cl)cc1O,16.4%
17,Cc1cc2c(cc1C)NC(=O)CC(C(F)(F)F)=N2,-0.9%
18,O=C1NC(=O)N(c2cccc(Br)c2)C(=O)/C1=C/c1ccc(F)cc1,-9.5%
19,C=CCn1c(SCc2ccc(C(=O)OC)cc2)nc2sc(C)c(C)c2c1=O,2.5%
20,Cc1cccn2c(=O)c(C=O)c(N3CCOCC3)nc12,8.1%
21,CCOc1ccc(Cl)cc1C=C1C(=O)NC(=S)NC1=O,15.7%
22,CCCN1C(=O)c2ccccc2NC1c1ccc(O)c(OCC)c1 (stereo not given),15.9%

row,SMILES,displacement
1,Cc1cccc(-c2cc(C(=O)N3CCN(c4cccc(C)c4C)CC3)c3ccccc3n2)c1,6.7%
2,Nc1ccc2nc(SCCOc3ccccc3)sc2c1,-7.2%
3,COc1cccc2cc(C(=O)Nc3cccc(C(=O)O)c3)c(=O)oc12,-3.5%
4,O=C(NCc1ccc(F)cc1)c1ccccc1I,2.2%
5,COc1ccc(C(=O)Nc2ccccc2)cc1NS(=O)(=O)c1ccc(C(C)(C)C)cc1,-5%
6,O=C(Nc1ccccc1C(=O)O)c1ccc2ccccc2n1,-0.9%
7,O=C(O)c1ccc(/C=N/Nc2ccc([N+](=O)[O-])cc2)cc1,10.8%
8,CCOC(=O)C1=C(O)/C(=C/c2ccc(N(C)C)cc2)SC1=Nc1ccc(Cl)cc1,170%
9,CC1=C(C(=O)Nc2ccccc2)C(c2cccc(Cl)c2)NC(=S)N1 (stereo not given),6.8%
10,CCCCOc1ccc(NC(=O)CSc2nnc(-c3cccc(F)c3)n2-c2ccccc2)cc1,11.6%
11,Cc1cc(NC(=O)c2ccc(C)c([N+](=O)[O-])c2)no1,-8.5%
12,COc1cc2c(cc1NCc1ccc([N+](=O)[O-])cc1)oc1ccccc12,-8.4%
13,O=C(/C=C/c1c(Cl)cccc1Cl)Nc1ccccc1F,-3.3%
14,Cc1cc(C)cc(OCC(O)CN2CCC(C)CC2)c1 (stereo not given),1.6%
15,COc1ccc(Cl)cc1C(=O)NC(C)c1ccccc1 (stereo not given),-7%
16,CC1=C(C)CC2C(=O)N(c3cccc(C)c3)C(=O)C2C1 (stereo not given),8.7%
17,COc1cc(/C=N/NC(=O)CNC(=O)C(c2ccccc2)c2ccccc2)ccc1O,2.8%
18,Cc1ccc(/C=C(/NC(=O)c2ccccc2I)C(=O)Nc2ccccc2)o1,21%
19,O=C(Nc1ccc2nn(-c3ccc(F)cc3)nc2c1)c1cc(I)ccc1Cl,-5.8%
20,Cc1ccc(-c2ccc(NC(=O)c3ccccc3)cc2)o1,11.7%
21,CC(=O)Nc1cc(-c2cccc(Br)c2)nn1-c1ccccc1,-9.7%
22,COc1ccc(C)cc1Nc1cc(C)c2ccccc2n1,0.9%

row,SMILES,displacement
1,O=C(Nc1ccc(NC(=S)NC(=O)c2ccco2)cc1)c1ccccc1,-2.4%
2,COc1ccc(OCCNC(=O)c2ccc(C)cc2)cc1,9.8%
3,COc1cc(F)ccc1S(=O)(=O)N1CCN(c2ccccc2)CC1,2.1%
4,CCCC(=O)Nc1cc(C(F)(F)F)cc(C(F)(F)F)c1,21.2%
5,Cc1ccccc1NC(=O)CCc1ccccc1,11.1%
6,COc1cccc(OC)c1C(=O)Nc1ccc(-c2ccc(NC(=O)c3c(OC)cccc3OC)c(Cl)c2)cc1Cl,4.2%
7,COc1ccccc1N1CCN(/N=C\c2ccc(OC)c(OC)c2OC)CC1,-11.7%
8,COc1ccc(/C=C2/C(C)=C(C#N)c3nc(N)c(C#N)c(C)c32)cc1OC,0.9%
9,CC(C)COc1ccc2c(c1)c1c3c(nccn32)CCC1,26.9%
10,COc1cc(C(=O)O/N=C2\CCCc3c2ccc(OC)c3[N+](=O)[O-])cc(OC)c1OC,4.3%
11,CCOC(=O)C(C#N)C1(c2ccc(F)cc2)CCOC(C)(CC)C1 (stereo not given),-5.7%
12,CCCCOc1ccccc1NC1=NS(=O)(=O)c2ccccc21,7.9%
13,COc1ccc(C)cc1NC(=O)c1ccc(OC)c([N+](=O)[O-])c1,5%
14,CCOc1ccc(C(NC=O)c2ccc(OC)cc2)cc1 (stereo not given),-9.3%
15,Cc1cc(C)c2nc3s/c(=C/c4ccc(-c5cccc(Cl)c5)o4)c(=O)n3c2c1,-0.7%
16,CN(Cc1ccccc1)C(=O)COc1ccc(-c2ccccc2)cc1,-4%
17,O=C(CSC1CC(=O)N(c2ccc(F)cc2)C1=O)Nc1ccc2ccccc2c1 (stereo not given),-5%
18,N#Cc1c(-c2ccc(O)cc2)c(C#N)c2nc3ccccc3n2c1N,12.5%
19,CC1=C(C(=O)OCc2ccccc2)C(c2ccccc2C(F)(F)F)CC(=O)N1 (stereo not given),-10.6%
20,O=C(/C=C/c1ccc(-c2cccc(Br)c2)o1)c1cccs1,6.5%
21,CC(=O)Nc1cc(-c2nc3ccccc3s2)ccc1Cl,11.6%
22,Cc1cccc(CSCc2nnc(NC(=O)Nc3cccc(Cl)c3)s2)c1,5.4%

row,SMILES,displacement
1,CCC(=O)NC(Cc1ccc(OC)c([N+](=O)[O-])c1)C(=O)O (stereo not given),3.3%
2,O=C(O)C1C2C=CC(C2)C1C(=O)NCCC1=CCCCC1 (stereo not given),-11.4%
3,Cc1cc(O)ccc1Nc1nc2ccccc2nc1Nc1ccc(O)cc1C,-5.9%
4,Clc1ccccc1CSc1ncnc2nc[nH]c12,-11.6%
5,Nc1cccc(C2=Nc3cccc4cccc(c34)N2)c1,-2.9%
6,COc1cccc(C(=O)Nc2ccc(-c3cc4ccccc4oc3=O)cc2)c1,12.7%
7,Oc1ccccc1-c1cc(-c2ccccc2)nc(N2CCCC2)n1,-8%
8,Cc1ccc(NCCC(=O)c2cccc([N+](=O)[O-])c2)cc1Cl,17.8%
9,Cc1cc(OCC(=O)N2CCC(C(N)=O)CC2)ccc1Br,1.4%
10,O=S(=O)(Nc1ccc(OCc2ccccc2)cc1)c1ccc2ccccc2c1,3.1%
11,O=[N+]([O-])c1ccc(-c2ccco2)c(Cl)c1,15.2%
12,COc1cc(Br)cc(/C=C(\C#N)C(=O)NC2CCCCC2)c1O,-5.3%
13,O=c1c2cnn(-c3ccccc3)c2nc(Cc2ccccc2)n1Cc1ccccc1,7.8%
14,Cc1cccc(OCC(=O)NCCc2ccccc2)c1,-12.7%
15,CCOC(=O)c1c(CC(C)C)csc1NC(C)=O,-3.3%
16,O=C(Nc1ccc(F)cc1)c1ccc(C#Cc2ccccc2)cc1,-6.6%
17,O=C1c2ccccc2C(=O)N1CC(O)Cn1c2ccccc2c2ccccc21 (stereo not given),9.1%
18,NCCCSc1nc2c(c(=O)n1Cc1ccccc1)C1(CCCCC1)Cc1ccccc1-2,-10.3%
19,Cc1ccc2[nH]c3nc(N/N=C/c4ccc(-c5ccc(Cl)cc5)o4)nnc3c2c1,-3%
20,COc1ccc2[nH]cc(CCNC=O)c2c1,2.9%
21,CC(C)CCOc1cccc(C(=O)Nc2ccc(Cl)c(NC(=O)c3ccccc3)c2)c1,17.9%
22,CC(=O)Oc1ccc(Cl)cc1N1C(=O)c2ccc([N+](=O)[O-])cc2C1=O,11.4%

row,SMILES,displacement
1,CCOc1ccc(N=Nc2c(C)[nH]n(-c3nc(-c4ccccc4)cs3)c2=O)cc1,-5.4%
2,O=C(Nc1nc(-c2ccc(F)cc2)cs1)c1ccc2c(c1)OCO2,-7.7%
3,Cc1ccc(C(C)C)c(OCCNC(=S)Nc2cccc3ccccc23)c1,-22.4%
4,O=C(NNS(=O)(=O)c1ccc(F)cc1)c1cccc(Br)c1,-11.5%
5,CCCCCOC(=O)Nc1ccc(S(=O)(=O)Nc2ccc([N+](=O)[O-])cc2)cc1,1.4%
6,CCOc1ccc(C(=O)Nc2ccc3oc(-c4ccccc4F)nc3c2)cc1,0.4%
7,COc1ccc(S(=O)(=O)N2CCN(C(=O)c3cccc(OC)c3)CC2)cc1,9.2%
8,CNC(=O)C(=O)Nc1ccc(C)c(C)c1,1.4%
9,CCOc1ccc(NC(=O)C(=O)NC(C)c2ccc(OC)cc2)cc1 (stereo not given),4.5%
10,CC1(C)CC(N=Cc2c(-c3ccccc3)[nH]n(-c3nc4ccccc4s3)c2=O)CC(C)(C)N1,-5.4%
11,O=C(Nc1ccc(Cl)cc1)C1CC(=O)N(c2ccc(Br)cc2)C1 (stereo not given),-3%
12,Cc1ccc(C2/C(=C(/O)c3ccc(Cl)cc3)C(=O)C(=O)N2c2nccs2)cc1 (stereo not given),12.3%
13,Cc1cc(C)c(C(=O)/C=C/c2ccc(-c3ccccc3)o2)cc1C,-6.5%
14,Clc1ccc(CN2CCN(/N=C/c3ccc(Cl)c(Cl)c3)CC2)cc1,15.1%
15,COc1ccc(/C=N/Nc2nnc(-c3ccccc3)c(-c3ccccc3)n2)c(OC)c1,2.4%
16,Cc1nn(CC(=O)N2CCCC2)c(C)c1[N+](=O)[O-],6.1%
17,Cc1ccc2nc(-c3ccc(C)c(NC(=O)c4cccc([N+](=O)[O-])c4C)c3)oc2c1,15.9%
18,CCOc1ccc(C2C3(OC(c4ccc(Cl)cc4)C24C(=O)c2ccccc2C4=O)C(=O)c2ccccc2C3=O)cc1 (stereo not given),11.2%
19,COc1ccc(CCNC(=O)C(=O)Nc2cc(C)ccc2C)cc1,-14.3%
20,c1cc2c(cc1NC1CCCCC1)OCO2,130%
21,CC1=NCCN1S(=O)(=O)c1ccccc1[N+](=O)[O-],-0.2%
22,CC(=O)c1ccc(NC(=S)NC(NC(=O)N(C)C)C(Cl)(Cl)Cl)cc1 (stereo not given),-0.7%
